{"source": "the supplement of paper PMC8728848", "binders": {"B1": {"name": "GSL-I (Griffonia simplicifolia) (protein)", "chain": "FNLPNFWSDVKDNIIFQGDANTTAGTLQLCKTNQYGNPLQYRAGRALYSDPVQLWDNKTGSVASFYTEFTFFLKITGDGPADGLAFFLAPPDSDVKDAGAYLGLFNKSTATQPSKNQVVAVEFDTWKNTDFPEPSYRHIGINVNSIVSVATKRWEDSDIFSGKIATARISYDGSAKILTVVLSYPDGADYILSHSVDLSKNLPNPIRVGISASTGANQFLTVYVLSWRFSSALQSTSVNAAMGPEIIRTVV"}}, "assay_in_all_cases": "glycan array binding signal (z-score within array); higher = stronger binding", "details_in_all_cases": "glycan notation: IUPAC condensed, linker removed", "key": {"[1]": {"target": "GalNAc3S(b1-4)GlcNAc", "procedure,_shortened": "(§1)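 The binding signal is a Z-score computed within each array. Data were drawn from 3228 arrays in the Consortium for Functional Glycomics database, restricted to those with a known protein sequence. Scores were averaged over arrays of the same protein sequence at different concentrations or buffers, and over linkers, and negative values can be taken as non-binding.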"}, "[2]": {"target": "GalNAc3S(b1-4)GlcNAc3S", "procedure,_shortened": "as §1"}, "[3]": {"target": "GalNAc3S(b1-4)[Fuc(a1-3)]GlcNAc", "procedure,_shortened": "as §1"}, "[4]": {"target": "GalNAc4S6S(b1-4)GlcNAc", "procedure,_shortened": "as §1"}, "[5]": {"target": "GalNAc6S(b1-4)GlcNAc", "procedure,_shortened": "as §1"}, "[6]": {"target": "Glc(a1-4)Glc", "procedure,_shortened": "as §1"}, "[7]": {"target": "Glc(a1-4)Glc(a1-4)Glc(a1-4)Glc", "procedure,_shortened": "as §1"}, "[8]": {"target": "Glc(a1-6)Glc(a1-6)Glc", "procedure,_shortened": "as §1"}, "[9]": {"target": "Glc(a1-6)Glc(a1-6)Glc(a1-6)Glc", "procedure,_shortened": "as §1"}, "[10]": {"target": "Glc(b1-4)Glc", "procedure,_shortened": "as §1"}, "[11]": {"target": "Glc(b1-6)Glc", "procedure,_shortened": "as §1"}, "[12]": {"target": "GlcA(b1-3)Gal", "procedure,_shortened": "as §1"}, "[13]": {"target": "GlcA(b1-3)GlcNAc", "procedure,_shortened": "as §1"}, "[14]": {"target": "GlcA(b1-6)Gal", "procedure,_shortened": "as §1"}, "[15]": {"target": "GlcA3S(b1-3)Gal(b1-4)GlcNAc(b1-2)Man", "procedure,_shortened": "as §1"}, "[16]": {"target": "GlcA3S(b1-3)Gal(b1-4)GlcNAc(b1-3)Gal(b1-4)Glc", "procedure,_shortened": "as §1"}, "[17]": {"target": "GlcNAc(a1-3)Gal(b1-4)GlcNAc", "procedure,_shortened": "as §1"}, "[18]": {"target": "GlcNAc(a1-4)Gal(b1-3)GlcNAc", "procedure,_shortened": "as §1"}, "[19]": {"target": "GlcNAc(a1-4)Gal(b1-4)GalNAc", "procedure,_shortened": "as §1"}, "[20]": {"target": "GlcNAc(a1-4)Gal(b1-4)GlcNAc", "procedure,_shortened": "as §1"}, "[21]": {"target": "GlcNAc(a1-4)Gal(b1-4)GlcNAc(b1-3)Gal(b1-4)Glc", "procedure,_shortened": "as §1"}, "[22]": {"target": "GlcNAc(a1-4)Gal(b1-4)GlcNAc(b1-3)Gal(b1-4)GlcNAc", "procedure,_shortened": "as §1"}, "[23]": {"target": "GlcNAc(a1-4)Gal(b1-4)GlcNAc(b1-3)Gal(b1-4)GlcNAc(b1-3)Gal(b1-4)GlcNAc", "procedure,_shortened": "as §1"}, "[24]": {"target": "GlcNAc(a1-4)Gal(b1-4)GlcNAc(b1-3)Gal(b1-4)[Fuc(a1-3)]GlcNAc(b1-3)Gal(b1-4)[Fuc(a1-3)]GlcNAc", "procedure,_shortened": "as §1"}, "[25]": {"target": "GlcNAc(a1-6)Gal(b1-4)GlcNAc", "procedure,_shortened": "as §1"}, "[26]": {"target": "GlcNAc(b1-2)Gal(b1-3)GalNAc", "procedure,_shortened": "as §1"}, "[27]": {"target": "GlcNAc(b1-2)Man(a1-3)[GlcNAc(b1-2)Man(a1-6)]Man(b1-4)GlcNAc(b1-4)GlcNAc", "procedure,_shortened": "as §1"}, "[28]": {"target": "GlcNAc(b1-2)Man(a1-3)[GlcNAc(b1-2)Man(a1-6)]Man(b1-4)GlcNAc(b1-4)[Fuc(a1-6)]GlcNAc", "procedure,_shortened": "as §1"}, "[29]": {"target": "GlcNAc(b1-2)Man(a1-3)[GlcNAc(b1-4)][GlcNAc(b1-2)Man(a1-6)]Man(b1-4)GlcNAc(b1-4)GlcNAc", "procedure,_shortened": "as §1"}, "[30]": {"target": "GlcNAc(b1-2)Man(a1-3)[GlcNAc(b1-4)][GlcNAc(b1-2)Man(a1-6)]Man(b1-4)GlcNAc(b1-4)[Fuc(a1-6)]GlcNAc", "procedure,_shortened": "as §1"}, "[31]": {"target": "GlcNAc(b1-2)[GlcNAc(b1-4)]Man(a1-3)[GlcNAc(b1-2)Man(a1-6)]Man(b1-4)GlcNAc(b1-4)GlcNAc", "procedure,_shortened": "as §1"}, "[32]": {"target": "GlcNAc(b1-2)[GlcNAc(b1-4)]Man(a1-3)[GlcNAc(b1-4)][GlcNAc(b1-2)Man(a1-6)]Man(b1-4)GlcNAc(b1-4)GlcNAc", "procedure,_shortened": "as §1"}, "[33]": {"target": "GlcNAc(b1-2)[GlcNAc(b1-4)]Man(a1-3)[GlcNAc(b1-4)][GlcNAc(b1-2)[GlcNAc(b1-6)]Man(a1-6)]Man(b1-4)GlcNAc(b1-4)GlcNAc", "procedure,_shortened": "as §1"}, "[34]": {"target": "GlcNAc(b1-2)[GlcNAc(b1-4)]Man(a1-3)[GlcNAc(b1-4)][GlcNAc(b1-2)[GlcNAc(b1-6)]Man(a1-6)]Man(b1-4)GlcNAc(b1-4)[Fuc(a1-6)]GlcNAc", "procedure,_shortened": "as §1"}, "[35]": {"target": "GlcNAc(b1-2)[GlcNAc(b1-6)]Man(a1-6)[GlcNAc(b1-2)Man(a1-3)]Man(b1-4)GlcNAc(b1-4)GlcNAc", "procedure,_shortened": "as §1"}, "[36]": {"target": "GlcNAc(b1-2)[GlcNAc(b1-6)]Man(a1-6)[GlcNAc(b1-2)Man(a1-3)]Man(b1-4)GlcNAc(b1-4)[Fuc(a1-6)]GlcNAc", "procedure,_shortened": "as §1"}, "[37]": {"target": "GlcNAc(b1-2)[GlcNAc(b1-6)]Man(a1-6)[GlcNAc(b1-4)][GlcNAc(b1-2)Man(a1-3)]Man(b1-4)GlcNAc(b1-4)GlcNAc", "procedure,_shortened": "as §1"}, "[38]": {"target": "GlcNAc(b1-3)Fuc", "procedure,_shortened": "as §1"}, "[39]": {"target": "GlcNAc(b1-3)Gal", "procedure,_shortened": "as §1"}, "[40]": {"target": "GlcNAc(b1-3)Gal(b1-3)GalNAc", "procedure,_shortened": "as §1"}, "[41]": {"target": "GlcNAc(b1-3)Gal(b1-4)Glc", "procedure,_shortened": "as §1"}, "[42]": {"target": "GlcNAc(b1-3)Gal(b1-4)GlcNAc", "procedure,_shortened": "as §1"}, "[43]": {"target": "GlcNAc(b1-3)Gal(b1-4)GlcNAc(b1-2)Man(a1-3)[GlcNAc(b1-3)Gal(b1-4)GlcNAc(b1-2)Man(a1-6)]Man(b1-4)GlcNAc(b1-4)GlcNAc", "procedure,_shortened": "as §1"}, "[44]": {"target": "GlcNAc(b1-3)Gal(b1-4)GlcNAc(b1-2)Man(a1-3)[GlcNAc(b1-3)Gal(b1-4)GlcNAc(b1-2)Man(a1-6)]Man(b1-4)GlcNAc(b1-4)[Fuc(a1-6)]GlcNAc", "procedure,_shortened": "as §1"}, "[45]": {"target": "GlcNAc(b1-3)Gal(b1-4)GlcNAc(b1-2)[GlcNAc(b1-3)Gal(b1-4)GlcNAc(b1-6)]Man(a1-6)[GlcNAc(b1-3)Gal(b1-4)GlcNAc(b1-2)Man(a1-3)]Man(b1-4)GlcNAc(b1-4)GlcNAc", "procedure,_shortened": "as §1"}}, "note": "This is one part of the list."}
{"binder": "B1", "values": [{"measurement": "glycan array binding signal (z-score)", "setting": "[1]", "value": -0.299}, {"measurement": "glycan array binding signal (z-score)", "setting": "[2]", "value": -0.244}, {"measurement": "glycan array binding signal (z-score)", "setting": "[3]", "value": -0.214}, {"measurement": "glycan array binding signal (z-score)", "setting": "[4]", "value": -0.288}, {"measurement": "glycan array binding signal (z-score)", "setting": "[5]", "value": -0.236}, {"measurement": "glycan array binding signal (z-score)", "setting": "[6]", "value": -0.173}, {"measurement": "glycan array binding signal (z-score)", "setting": "[7]", "value": -0.189}, {"measurement": "glycan array binding signal (z-score)", "setting": "[8]", "value": -0.113}, {"measurement": "glycan array binding signal (z-score)", "setting": "[9]", "value": -0.154}, {"measurement": "glycan array binding signal (z-score)", "setting": "[10]", "value": -0.154}, {"measurement": "glycan array binding signal (z-score)", "setting": "[11]", "value": -0.221}, {"measurement": "glycan array binding signal (z-score)", "setting": "[12]", "value": -0.068}, {"measurement": "glycan array binding signal (z-score)", "setting": "[13]", "value": -0.171}, {"measurement": "glycan array binding signal (z-score)", "setting": "[14]", "value": -0.096}, {"measurement": "glycan array binding signal (z-score)", "setting": "[15]", "value": -0.27}, {"measurement": "glycan array binding signal (z-score)", "setting": "[16]", "value": -0.231}, {"measurement": "glycan array binding signal (z-score)", "setting": "[17]", "value": -0.199}, {"measurement": "glycan array binding signal (z-score)", "setting": "[18]", "value": -0.209}, {"measurement": "glycan array binding signal (z-score)", "setting": "[19]", "value": -0.188}, {"measurement": "glycan array binding signal (z-score)", "setting": "[20]", "value": 0.112}, {"measurement": "glycan array binding signal (z-score)", "setting": "[21]", "value": -0.13}, {"measurement": "glycan array binding signal (z-score)", "setting": "[22]", "value": -0.145}, {"measurement": "glycan array binding signal (z-score)", "setting": "[23]", "value": -0.154}, {"measurement": "glycan array binding signal (z-score)", "setting": "[24]", "value": -0.146}, {"measurement": "glycan array binding signal (z-score)", "setting": "[25]", "value": -0.171}, {"measurement": "glycan array binding signal (z-score)", "setting": "[26]", "value": -0.228}, {"measurement": "glycan array binding signal (z-score)", "setting": "[27]", "value": -0.215}, {"measurement": "glycan array binding signal (z-score)", "setting": "[28]", "value": -0.156}, {"measurement": "glycan array binding signal (z-score)", "setting": "[29]", "value": -0.281}, {"measurement": "glycan array binding signal (z-score)", "setting": "[30]", "value": -0.193}, {"measurement": "glycan array binding signal (z-score)", "setting": "[31]", "value": -0.199}, {"measurement": "glycan array binding signal (z-score)", "setting": "[32]", "value": -0.236}, {"measurement": "glycan array binding signal (z-score)", "setting": "[33]", "value": -0.256}, {"measurement": "glycan array binding signal (z-score)", "setting": "[34]", "value": -0.225}, {"measurement": "glycan array binding signal (z-score)", "setting": "[35]", "value": -0.121}, {"measurement": "glycan array binding signal (z-score)", "setting": "[36]", "value": -0.27}, {"measurement": "glycan array binding signal (z-score)", "setting": "[37]", "value": -0.289}, {"measurement": "glycan array binding signal (z-score)", "setting": "[38]", "value": -0.172}, {"measurement": "glycan array binding signal (z-score)", "setting": "[39]", "value": -0.192}, {"measurement": "glycan array binding signal (z-score)", "setting": "[40]", "value": -0.209}, {"measurement": "glycan array binding signal (z-score)", "setting": "[41]", "value": -0.196}, {"measurement": "glycan array binding signal (z-score)", "setting": "[42]", "value": -0.251}, {"measurement": "glycan array binding signal (z-score)", "setting": "[43]", "value": -0.236}, {"measurement": "glycan array binding signal (z-score)", "setting": "[44]", "value": -0.024}, {"measurement": "glycan array binding signal (z-score)", "setting": "[45]", "value": 0.18}]}
